# Results as given in a collection of fitness landscapes (doi:10.1016/j.celrep.2020.107928).
# Over roughly 81,000 sequences, “one-hybrid fitness for binding NBS DNA” has its median near -0.1; the highest 2% begin near 0.36. The list shows a part of the results.
# B1: Caulobacter ParB omega fusion; a variant is named by its letters at X, in order, B8GW30 (parent)
# chain: MESVVVGEPGMSEGRRGLGRGLSALLGEVDAAPAQAPGEQLGGSREAPIEILQRNPDQPRRTFREEDLEDLSNSIREKGVLQPILVRPSPDTAGEYQIVAGERAWRAAQRAGLKTVPIMVRELDDLAVLEIGIIENVQRADLNVLEEALSYKVLMEKFERTQENIAQTIGKSXSHVANXMRLLXLPDEVQSYLVSGELTAXHARAIAAAADPVALAKQIIEGGLSVRETEALARKAPNLSAGKSKGGRPPRVKDTDTQALESDLSSVLGLDVSIDHRGSTGTLTITYATLEQLDDLCNRLTRGI
# Variants of: B1
# Assay: one-hybrid fitness for binding NBS DNA (the Noc-binding site; scaled: cognate 1, non-cognate 0); higher = stronger binding
# Details: with NBS DNA site
# Method in brief: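 The reporter was HIS3, with the binding site 19 bp from the promoter, in E. coli USO used for bacterial one-hybrid selection of Caulobacter ParB libraries with four specificity codons randomised. Growth was on M9 lacking histidine, with 0.1 mM IPTG and 5 mM 3-AT, for 48 hours at 37°C. Illumina sequencing covered plasmids before and after selection; three replicate libraries were pooled and variants with under 10 reads dropped. A fitness score is the log change in variant-to-wild-type read ratio, rescaled to the cognate and non-cognate references.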
row,Variant,one-hybrid fitness for binding NBS DNA
1,CHLT,≤ 0.2
2,GSAC,≤ 0.2
3,PEHT,≤ 0.2
4,APPP,≤ 0.2
5,PPNN,≤ 0.2
6,NYQR,≤ 0.2
7,HSWR,≤ 0.2
8,AHPV,≤ 0.2
9,VHPD,≤ 0.2
10,TGNT,≤ 0.2
11,PCGW,≤ 0.2
12,QWRW,≤ 0.2
13,HTDM,≤ 0.2
14,WPPF,≤ 0.2
15,STQD,≤ 0.2
16,VTTV,≤ 0.2
17,QTEM,≤ 0.2
18,RNEI,≤ 0.2
19,APTR,≤ 0.2
20,DYVR,≤ 0.2
21,QSMY,≤ 0.2

row,Variant,one-hybrid fitness for binding NBS DNA
1,LSHE,≤ 0.2
2,AKCW,≤ 0.2
3,HYNG,≤ 0.2
4,ALTY,≤ 0.2
5,PRAA,≤ 0.2
6,LYFF,≤ 0.2
7,HQHS,≤ 0.2
8,MASY,≤ 0.2
9,LRQY,≤ 0.2
10,YLNF,≤ 0.2
11,HHQT,≤ 0.2
12,LDLA,≤ 0.2
13,ELHI,≤ 0.2
14,SYRI,≤ 0.2
15,YIDL,≤ 0.2
16,MSST,≤ 0.2
17,VRLY,≤ 0.2
18,HQWS,≤ 0.2
19,PVLY,≤ 0.2
20,LHTT,≤ 0.2
21,PYTC,≤ 0.2

row,Variant,one-hybrid fitness for binding NBS DNA
1,PDFT,≤ 0.2
2,KCQG,≤ 0.2
3,QCHI,≤ 0.2
4,SSHE,≤ 0.2
5,EPQE,≤ 0.2
6,SMQL,≤ 0.2
7,HYPL,≤ 0.2
8,AFKK,≤ 0.2
9,GPMK,≤ 0.2
10,EDNG,≤ 0.2
11,FQAE,≤ 0.2
12,GTFG,≤ 0.2
13,VQPF,≤ 0.2
14,DRLV,≤ 0.2
15,MNTC,≤ 0.2
16,NWQR,≤ 0.2
17,SLTS,≤ 0.2
18,SGIY,≤ 0.2
19,HYVK,≤ 0.2
20,CFSC,≤ 0.2
21,TNAC,≤ 0.2

row,Variant,one-hybrid fitness for binding NBS DNA
1,PYRV,≤ 0.2
2,FMPC,≤ 0.2
3,RYDI,≤ 0.2
4,RCIR,0.294
5,QLFN,≤ 0.2
6,TPAQ,≤ 0.2
7,HDTM,≤ 0.2
8,PKEG,≤ 0.2
9,TAPK,≤ 0.2
10,HRPL,≤ 0.2
11,YEPV,≤ 0.2
12,MAYH,≤ 0.2
13,ERTF,≤ 0.2
14,DDNR,≤ 0.2
15,CPST,≤ 0.2
16,YKDA,≤ 0.2
17,YLEC,≤ 0.2
18,EGYG,≤ 0.2
19,PSSA,≤ 0.2
20,HSDS,≤ 0.2
21,ELWA,≤ 0.2
